Laboratory results: PubChem BioAssay AID1240 (Sanford-Burnham Center for Chemical Genomics, 2008)
Hit rate of the full screen: of about 50,000 compounds, about 800 (1.6%) showed an effect of 50% or more. Some of the results follow.

target: Bcl-2-like protein 10 (Homo sapiens) (UniProt Q9HD36); assay: Phenotype converters, Bcl-B/TR3 peptide binding displacement, primary biochemical FP (AID 1240); conditions: GST-Bcl-B / FITC-TR3 peptide fluorescence polarization; stronger effect = higher value; compound at 3.75 mg/L;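 also: 0% = Bcl-B with tracer peptide and DMSO and 100% = tracer peptide lacking Bcl-B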
UniProt Q9HD36, sequence (Q9HD36 whole entry, looked up): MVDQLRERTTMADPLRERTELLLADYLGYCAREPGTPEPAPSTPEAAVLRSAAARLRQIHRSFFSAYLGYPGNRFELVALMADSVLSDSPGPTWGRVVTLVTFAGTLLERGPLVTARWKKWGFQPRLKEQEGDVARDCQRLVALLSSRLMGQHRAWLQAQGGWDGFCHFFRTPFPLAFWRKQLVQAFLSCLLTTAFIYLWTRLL

Row | SMILES | displacement [%]
1 | CC(CN)(NS(=O)(=O)c1ccccc1)c1ccccc1 (centres undefined) | -3.2
2 | CCc1c(C)sc(NC(=O)C(CC)c2ccccc2)c1C(=O)OC (centres undefined) | 2.4
3 | C=CCc1cccc2cc(C(=O)N3CCN(Cc4ccccc4)CC3)c(=O)oc12 | 3.2
4 | Nc1nc(-c2ccccc2Cl)cs1 | 4.7
5 | CC1(C)Cc2ccccc2C(/C=C2\NC(C)(C)Cc3ccccc32)=N1 | -1.7
6 | CCOC(=O)c1ccccc1NC(=O)c1ccc(Cl)cc1 | 2.7
7 | CC(=O)Nc1ccc(/C=C2\SC(=S)N(C)C2=O)cc1 | -3.2
8 | CCOc1cc(OCC)cc(C(=O)Nc2ccc(NC(=O)c3ccc(Br)cc3)cc2)c1 | -4.1
9 | CCOc1cccc(N2C(=O)CC(SCC(=O)Nc3ccc4ccccc4c3)C2=O)c1 (centres undefined) | -5.1
10 | O=C(N/N=C/c1ccc(F)cc1)c1cc(C2CC2)[nH]n1 | -1.3
11 | CCOC(=O)c1c(C)[nH]c(N=Nc2ccc(C)cc2)c1C | 2.4
12 | O=C(CSc1ncn[nH]1)N1c2ccccc2Sc2ccc(Cl)cc21 | 9.6
13 | COc1ccc(N(CC(=O)Nc2ccc(C)cc2C)S(C)(=O)=O)c(OC)c1 | -0.6
14 | O=C(NCC1(c2ccccc2)CCCC1)c1ccccc1Cl | -4.6
15 | O=C1C(Cl)=CC(=NS(=O)(=O)c2ccccc2)C=C1Cl | 30.3
16 | Cc1ccc(/C=C(\NC(=O)c2ccc(C)cc2)C(=O)NC(C)C)cc1 | 8.9
17 | COc1ccc(OC)c(N(CC(N)=O)S(C)(=O)=O)c1 | 10.8
18 | O=C(NCCCCOc1ccccc1)C(O)(c1ccc(F)cc1)c1ccc(F)cc1 | -5.5
19 | CCOC(=O)c1ccc(NC(=O)CCNC(=O)c2ccccc2NC(=O)c2ccc(OC)cc2)cc1 | 13.1
20 | Clc1ccc(N2CCN(/N=C\c3cccs3)CC2)cc1 | -6
21 | C=CCN1C(=O)/C(=C\c2ccc(-c3ccc(Br)cc3)o2)C(=O)NC1=S | 1.1
22 | CCOC(=O)C1=C(CC)NC2=C(C(=O)CCC2)C1c1ccc(-c2ccccc2)cc1 (centres undefined) | -4.9
23 | O=C(O)c1ccccc1-c1ccc(/C=N/n2cnnc2)o1 | 4.2
24 | COc1ccccc1NC(=O)C(=O)NCc1ccco1 | -4.7
25 | CCOc1ccc(-c2cc(C)n3nc(C(=O)Nc4cc(C)ccc4O)cc3n2)cc1 | 1.1

Row | SMILES | displacement [%]
26 | COc1cc([N+](=O)[O-])ccc1NC(=O)Cn1cnc2c1c(=O)n(C)c(=O)n2C | 10
27 | CC1=CC(C)(C)N(CC(=O)c2ccc([N+](=O)[O-])cc2)c2c(C)cccc21 | -12.3
28 | COc1ccc(S(=O)(=O)Nc2ccc(C(N)=O)cc2)cc1 | 1
29 | Cc1ccc(S(=O)(=O)N2CCN(Cc3ccc(Br)cc3)CC2)cc1 | 11.6
30 | CCCOC(=O)c1c(-c2ccc(Cl)c(Cl)c2)csc1N | -5.8
31 | CC1=NN(C(=O)C(C)(C)C)C(O)(c2ccccc2)C1 (centres undefined) | -7.3
32 | COc1cc(NC(=O)c2ccc(Cl)cc2Cl)cc(OC)c1 | 8.8
33 | COCCN=C1NS(=O)(=O)c2ccccc21 | 13.1
34 | O=C(Nc1cccc(Cl)c1)C1CC1(c1ccccc1)c1ccccc1 (centres undefined) | -0.6
35 | CCOC(=O)c1sc(N/N=C/c2ccc(O)cc2)nc1C | -10.2
36 | Cc1ccc(S(=O)(=O)OCP(=O)(c2ccccc2)c2ccccc2)cc1 | 13.5
37 | COC(=O)c1cc(-c2ccc(OC)c(OC)c2)nc2ccccc12 | -5.5
38 | O=C(Nc1cccc(F)c1)c1cccc(F)c1 | 10.1
39 | O=C(CCc1ccccc1)NCc1cccnc1 | 5.6
40 | COc1ccccc1/C=N/NC(=O)c1cc(-c2ccc(C)cc2)n[nH]1 | -6.7
41 | O=C(O)c1ccc(N2C(=O)c3cccc4c([N+](=O)[O-])c(O)cc(c34)C2=O)cc1 | 39.6
42 | CC(=O)c1ccc(NCCC(=O)c2ccccc2)cc1 | -15.1
43 | Cc1cccc(-c2noc(-c3ccc(I)cc3)n2)c1 | 2.2
44 | COc1ccc(C(=O)N2CCN(S(=O)(=O)c3ccccc3)CC2)cc1 | 19.1
45 | COc1cc(Br)c(/C=C2\C(=O)NC(=O)N(c3cc(C)cc(C)c3)C2=O)cc1OC | -0.5
46 | O=C(CSc1nc2ccccc2[nH]1)Nc1ccc(Cl)cc1 | -10
47 | Cc1cc(C)cc(CC2CC(=O)N(c3ccc(Br)cc3)C2=O)c1 (centres undefined) | -8
48 | O=C(/C=C/Nc1ccc(F)c(Cl)c1)c1ccc(Br)cc1 | -5.1
49 | O=C1NC(=O)N(Cc2ccccc2)C(=O)/C1=C/c1cccs1 | 15.6
50 | COc1ccccc1NC(=O)c1c(N)sc2c1CCCC2 | 4.5

Row | SMILES | displacement [%]
51 | Cc1cc(Br)cc(C)c1NC(=O)C(C)C | 18.2
52 | COc1ccccc1CNC(=O)c1c(-c2ccccc2Cl)noc1C | 4.6
53 | CC(=O)N(c1cccc(C)c1)S(=O)(=O)c1ccc(Cl)cc1 | 6.6
54 | CCOC(=O)C(C(C)=O)c1cc(NS(=O)(=O)c2ccc(C)cc2)c2ccccc2c1NS(=O)(=O)c1ccc(C)cc1 (centres undefined) | 78.8
55 | COc1ccc(C)cc1NCc1ccc(OC)c(C)c1OC | 9.2
56 | CCn1c(C)nc2cc(C(=O)Nc3ccccc3)ccc21 | 14.4
57 | COc1ccccc1CNC(=O)c1cccc(F)c1 | -3.8
58 | CC1(C)Nc2ccccc2N(Cc2ccc([N+](=O)[O-])cc2)C1=O | -1.7
59 | CCOC(=O)COc1cc(C)c2c(=O)c(-c3nc(C)cs3)coc2c1 | -5.1
60 | Cc1ccc(NC(=O)COc2ccc3ccccc3c2)c(C)c1 | -7.2
61 | CCOC(=O)C1=CN(c2ccc(F)cc2)C=C(C(=O)OCC)C1c1cc(OC)c(OC)c(OC)c1 | -2.3
62 | O=C(CN1C(=O)/C(=C/c2cccc(Br)c2)SC1=S)Nc1ccccn1 | 69
63 | COc1ccccc1N1CCN(/N=C\c2cccnc2)CC1 | 1.1
64 | c1ccc2c(N3CCCCC3)nc(-c3ccncc3)nc2c1 | 21.4
65 | Cc1cccc(C)c1OCC(=O)Nc1ccccc1 | 15
66 | CC(CCCC(C)(C)O)CC1OCCO1 (centres undefined) | 1
67 | CC1=C(C)CC2C(=O)N(c3ccc(F)cc3)C(=O)C2C1 (centres undefined) | -2
68 | Cc1ccc(OCCCn2ccnc2)c(Cl)c1 | -12.6
69 | CCSc1nc2sc3c(c2c2nncn12)CCN(C)C3 | 30.6
70 | COc1ccc(CCNC(=O)c2c(-c3ccccc3Cl)noc2C)cc1 | -0.9
71 | O=C(Nc1ccccc1F)c1ccccc1F | 8.1
72 | COc1ccc(NC(=O)Nc2ccc(Cl)c(Cl)c2)cc1OC | 1.8
73 | CN(C)c1cccc(C(=O)n2nnc3ccccc32)c1 | 9.6
74 | Cc1ccc(S(=O)(=O)/N=C2\C=C(n3cnc4ccccc43)C(=O)c3ccccc32)cc1 | 7.5
